Laboratory results published in patent publication US20130333059A1 (Johns Hopkins, published 2013).

Key:
Test in all cases: GST affinity chromatography of SKBR3 and MCF10A cell extracts, SDS-PAGE with silver/Coomassie stain
[1] = molecular target: T1, Ku80 (human, UniProt P13010)
T1 construct: also called Ku86; 85 kDa band

[2] = molecular target: T2, poly(ADP) ribose polymerase (PARP) (human, UniProt P09874)
T2 construct: Endogenous protein from cell extracts; also called 110 kDa band

[3] = molecular target: T3, DNA-PKcs (human, UniProt P78527)
T3 construct: Endogenous protein from cell extracts; also called catalytic subunit of DNA-PK; >250 kDa band

[4] = molecular target: T4, Ku70 (human, UniProt P12956)
T4 construct: Endogenous protein from cell extracts; also called 70 kDa band; HsKu70

Measured: binding result

T3 sequence (P78527 whole entry): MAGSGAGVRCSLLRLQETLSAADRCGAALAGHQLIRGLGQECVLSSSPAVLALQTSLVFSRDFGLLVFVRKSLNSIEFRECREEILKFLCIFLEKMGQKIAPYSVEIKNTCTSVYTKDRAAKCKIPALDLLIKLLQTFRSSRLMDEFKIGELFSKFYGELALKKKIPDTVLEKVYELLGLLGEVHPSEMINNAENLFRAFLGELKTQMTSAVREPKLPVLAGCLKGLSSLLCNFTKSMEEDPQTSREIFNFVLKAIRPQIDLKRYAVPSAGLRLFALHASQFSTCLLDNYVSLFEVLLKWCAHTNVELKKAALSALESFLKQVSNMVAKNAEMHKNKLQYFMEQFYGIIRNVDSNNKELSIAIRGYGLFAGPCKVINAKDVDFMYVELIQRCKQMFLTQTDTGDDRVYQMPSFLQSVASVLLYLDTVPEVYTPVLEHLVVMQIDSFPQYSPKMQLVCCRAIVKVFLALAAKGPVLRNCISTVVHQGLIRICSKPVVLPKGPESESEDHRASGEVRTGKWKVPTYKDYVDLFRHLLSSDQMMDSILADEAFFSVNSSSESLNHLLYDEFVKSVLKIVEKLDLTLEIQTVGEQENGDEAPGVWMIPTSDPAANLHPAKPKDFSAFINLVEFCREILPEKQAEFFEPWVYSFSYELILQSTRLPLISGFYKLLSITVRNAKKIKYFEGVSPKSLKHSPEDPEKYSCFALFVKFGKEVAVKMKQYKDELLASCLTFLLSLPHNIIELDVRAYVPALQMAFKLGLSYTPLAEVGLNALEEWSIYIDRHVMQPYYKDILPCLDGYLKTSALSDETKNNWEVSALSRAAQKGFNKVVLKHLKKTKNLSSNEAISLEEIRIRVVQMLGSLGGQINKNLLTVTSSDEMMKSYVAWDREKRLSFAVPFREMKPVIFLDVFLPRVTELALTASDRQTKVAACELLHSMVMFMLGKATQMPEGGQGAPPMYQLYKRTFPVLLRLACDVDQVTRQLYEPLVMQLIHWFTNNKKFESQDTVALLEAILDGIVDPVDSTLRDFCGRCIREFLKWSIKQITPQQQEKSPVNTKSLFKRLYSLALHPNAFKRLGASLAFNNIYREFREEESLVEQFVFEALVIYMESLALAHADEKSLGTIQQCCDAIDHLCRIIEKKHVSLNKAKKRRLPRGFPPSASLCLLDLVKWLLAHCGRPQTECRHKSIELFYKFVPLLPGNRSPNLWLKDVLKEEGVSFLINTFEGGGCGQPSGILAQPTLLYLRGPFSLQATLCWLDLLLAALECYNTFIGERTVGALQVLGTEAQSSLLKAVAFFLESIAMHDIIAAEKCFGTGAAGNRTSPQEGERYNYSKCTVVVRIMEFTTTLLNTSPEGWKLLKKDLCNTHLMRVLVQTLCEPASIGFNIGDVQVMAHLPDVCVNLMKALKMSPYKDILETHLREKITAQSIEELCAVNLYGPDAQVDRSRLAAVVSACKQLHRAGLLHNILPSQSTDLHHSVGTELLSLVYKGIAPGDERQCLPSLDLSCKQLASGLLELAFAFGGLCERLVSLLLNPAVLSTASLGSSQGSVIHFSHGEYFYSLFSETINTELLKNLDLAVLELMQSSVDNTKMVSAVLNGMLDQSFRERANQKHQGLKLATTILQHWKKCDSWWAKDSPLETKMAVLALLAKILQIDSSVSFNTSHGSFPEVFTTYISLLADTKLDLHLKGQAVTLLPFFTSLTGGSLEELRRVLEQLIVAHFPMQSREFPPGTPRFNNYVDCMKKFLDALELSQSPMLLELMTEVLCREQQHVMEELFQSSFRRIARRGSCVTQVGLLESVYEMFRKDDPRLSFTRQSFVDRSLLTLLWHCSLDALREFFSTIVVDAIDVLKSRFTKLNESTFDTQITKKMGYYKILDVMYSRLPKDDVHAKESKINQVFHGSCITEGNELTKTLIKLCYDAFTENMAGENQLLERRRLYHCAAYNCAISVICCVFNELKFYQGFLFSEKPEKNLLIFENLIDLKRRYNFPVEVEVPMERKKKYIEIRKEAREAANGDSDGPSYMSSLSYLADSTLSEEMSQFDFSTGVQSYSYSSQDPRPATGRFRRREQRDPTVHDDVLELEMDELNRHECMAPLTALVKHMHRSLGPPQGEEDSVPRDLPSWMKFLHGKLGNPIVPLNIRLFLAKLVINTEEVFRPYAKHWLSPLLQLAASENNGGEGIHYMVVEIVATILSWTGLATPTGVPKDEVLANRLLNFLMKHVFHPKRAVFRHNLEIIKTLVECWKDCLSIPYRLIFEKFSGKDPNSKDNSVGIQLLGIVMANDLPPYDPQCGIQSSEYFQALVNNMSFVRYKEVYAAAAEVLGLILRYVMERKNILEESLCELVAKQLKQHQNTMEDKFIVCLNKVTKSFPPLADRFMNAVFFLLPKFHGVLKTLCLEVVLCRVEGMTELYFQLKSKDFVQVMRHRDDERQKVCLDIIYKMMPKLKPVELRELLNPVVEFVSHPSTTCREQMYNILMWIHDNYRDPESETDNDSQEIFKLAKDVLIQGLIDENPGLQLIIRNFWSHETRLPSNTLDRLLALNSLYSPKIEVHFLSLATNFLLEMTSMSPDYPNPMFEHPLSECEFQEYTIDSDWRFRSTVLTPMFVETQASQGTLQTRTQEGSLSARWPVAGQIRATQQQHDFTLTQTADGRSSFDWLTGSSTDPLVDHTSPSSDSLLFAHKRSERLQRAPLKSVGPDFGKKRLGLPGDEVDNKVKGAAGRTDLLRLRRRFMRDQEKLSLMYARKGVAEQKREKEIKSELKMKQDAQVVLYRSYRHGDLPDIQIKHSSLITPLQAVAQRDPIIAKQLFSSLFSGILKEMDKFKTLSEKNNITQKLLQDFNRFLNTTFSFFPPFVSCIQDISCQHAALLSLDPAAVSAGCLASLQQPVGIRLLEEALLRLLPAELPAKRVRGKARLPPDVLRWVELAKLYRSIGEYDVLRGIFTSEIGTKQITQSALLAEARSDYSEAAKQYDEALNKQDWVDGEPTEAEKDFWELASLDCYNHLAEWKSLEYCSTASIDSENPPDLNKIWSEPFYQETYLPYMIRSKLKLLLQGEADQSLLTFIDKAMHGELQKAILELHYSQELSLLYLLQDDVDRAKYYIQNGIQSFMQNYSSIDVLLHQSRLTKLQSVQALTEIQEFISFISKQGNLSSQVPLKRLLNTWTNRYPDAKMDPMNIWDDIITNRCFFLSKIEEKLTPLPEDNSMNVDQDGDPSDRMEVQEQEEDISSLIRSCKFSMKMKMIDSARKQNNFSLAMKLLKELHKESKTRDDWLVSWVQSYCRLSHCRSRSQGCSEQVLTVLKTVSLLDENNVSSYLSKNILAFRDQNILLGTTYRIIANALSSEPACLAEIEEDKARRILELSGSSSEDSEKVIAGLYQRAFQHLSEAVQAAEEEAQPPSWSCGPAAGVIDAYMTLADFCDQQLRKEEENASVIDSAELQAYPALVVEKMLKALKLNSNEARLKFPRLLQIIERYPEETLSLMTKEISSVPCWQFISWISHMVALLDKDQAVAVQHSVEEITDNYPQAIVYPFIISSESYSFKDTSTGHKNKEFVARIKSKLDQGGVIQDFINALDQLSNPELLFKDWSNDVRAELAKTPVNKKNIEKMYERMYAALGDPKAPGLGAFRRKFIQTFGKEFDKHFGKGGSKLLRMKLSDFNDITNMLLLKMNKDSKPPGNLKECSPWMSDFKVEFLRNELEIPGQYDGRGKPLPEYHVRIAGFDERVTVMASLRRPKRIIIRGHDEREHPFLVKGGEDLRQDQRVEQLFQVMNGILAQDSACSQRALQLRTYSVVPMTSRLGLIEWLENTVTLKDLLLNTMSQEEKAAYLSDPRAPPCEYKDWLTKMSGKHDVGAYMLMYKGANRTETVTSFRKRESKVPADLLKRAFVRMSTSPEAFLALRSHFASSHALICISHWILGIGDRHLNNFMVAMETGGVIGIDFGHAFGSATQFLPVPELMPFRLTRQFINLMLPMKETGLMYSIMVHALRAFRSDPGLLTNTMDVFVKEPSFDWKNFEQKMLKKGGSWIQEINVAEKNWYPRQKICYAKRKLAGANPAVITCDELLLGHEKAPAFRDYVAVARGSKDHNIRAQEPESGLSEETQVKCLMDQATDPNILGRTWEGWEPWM
T4 sequence (P12956 2-609 limits assumed): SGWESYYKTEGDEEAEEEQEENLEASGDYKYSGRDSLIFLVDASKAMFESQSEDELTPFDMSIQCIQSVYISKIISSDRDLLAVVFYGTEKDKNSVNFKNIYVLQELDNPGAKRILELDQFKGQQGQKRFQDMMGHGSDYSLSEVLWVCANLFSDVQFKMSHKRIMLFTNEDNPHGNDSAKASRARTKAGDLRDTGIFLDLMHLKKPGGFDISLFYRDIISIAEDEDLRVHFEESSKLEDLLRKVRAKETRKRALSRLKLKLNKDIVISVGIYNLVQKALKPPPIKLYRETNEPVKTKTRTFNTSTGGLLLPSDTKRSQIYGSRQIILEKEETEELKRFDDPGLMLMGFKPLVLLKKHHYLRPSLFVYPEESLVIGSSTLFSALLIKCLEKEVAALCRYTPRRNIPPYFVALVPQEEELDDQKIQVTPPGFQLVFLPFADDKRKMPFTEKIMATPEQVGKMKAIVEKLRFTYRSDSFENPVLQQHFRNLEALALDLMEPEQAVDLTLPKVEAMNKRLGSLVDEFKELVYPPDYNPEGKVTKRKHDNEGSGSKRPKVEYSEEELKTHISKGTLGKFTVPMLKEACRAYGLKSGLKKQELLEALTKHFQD

B1: GST (other)
chain: not shown
notes: also called GST alone; GST-Sepharose
no binding: all assays above
